# In paper PMC4336329 (PLoS ONE, 2015):
# Among all 310,000 compounds or so, about 2,200 (0.71%) showed an effect of 50% or more. Effects have a minus sign here. The list shows a part of the results.
# Target: human ether-à-go-go-related gene (hERG) potassium channel (human, UniProt Q12809)
# Test: primary screen, population patch clamp on CHO cells stably expressing hERG
# Chain of human ether-à-go-go-related gene (hERG) potassium channel (Q12809 whole entry, looked up): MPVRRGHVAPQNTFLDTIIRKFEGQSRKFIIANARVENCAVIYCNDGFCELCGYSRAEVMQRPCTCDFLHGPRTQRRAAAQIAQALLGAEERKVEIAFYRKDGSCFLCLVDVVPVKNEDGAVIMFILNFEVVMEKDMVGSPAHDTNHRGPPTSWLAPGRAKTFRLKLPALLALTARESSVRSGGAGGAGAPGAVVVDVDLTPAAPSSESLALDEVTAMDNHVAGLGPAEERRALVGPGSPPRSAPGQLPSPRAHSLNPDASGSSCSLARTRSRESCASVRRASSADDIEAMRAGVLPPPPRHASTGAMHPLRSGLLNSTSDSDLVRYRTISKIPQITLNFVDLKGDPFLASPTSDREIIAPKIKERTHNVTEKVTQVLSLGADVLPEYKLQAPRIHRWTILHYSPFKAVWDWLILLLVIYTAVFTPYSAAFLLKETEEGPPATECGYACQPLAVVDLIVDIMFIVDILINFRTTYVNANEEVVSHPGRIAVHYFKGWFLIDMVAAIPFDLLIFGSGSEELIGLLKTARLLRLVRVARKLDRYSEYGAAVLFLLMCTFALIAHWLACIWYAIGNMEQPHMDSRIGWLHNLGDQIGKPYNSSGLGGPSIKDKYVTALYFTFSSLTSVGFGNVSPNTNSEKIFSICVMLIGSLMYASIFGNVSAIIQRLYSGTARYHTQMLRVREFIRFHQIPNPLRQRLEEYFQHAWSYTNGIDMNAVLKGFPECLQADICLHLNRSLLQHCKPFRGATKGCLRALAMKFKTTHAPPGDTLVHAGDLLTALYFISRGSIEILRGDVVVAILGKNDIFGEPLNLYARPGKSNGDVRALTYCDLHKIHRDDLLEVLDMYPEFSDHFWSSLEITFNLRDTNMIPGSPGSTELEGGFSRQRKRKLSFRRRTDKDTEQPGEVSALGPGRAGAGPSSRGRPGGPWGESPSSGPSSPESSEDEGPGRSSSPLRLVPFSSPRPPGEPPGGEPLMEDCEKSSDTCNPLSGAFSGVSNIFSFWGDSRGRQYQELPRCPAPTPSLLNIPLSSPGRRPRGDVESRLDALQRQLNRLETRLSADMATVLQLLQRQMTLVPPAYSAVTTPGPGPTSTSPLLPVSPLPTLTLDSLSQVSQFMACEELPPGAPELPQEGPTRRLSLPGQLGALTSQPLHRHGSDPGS
row,Compound,"hERG current change (%, negative = inhibition) at 1uM"
1,FC(F)(F)c1cccc(NC(=S)Nc2ccc(Cl)cc2Cl)c1,17.7%
2,COc1cc(OC)c(C(=O)NC2CC(C)(C)NC(C)(C)C2)cc1OC,3.94%
3,Cc1oc(C(C)(C)C)cc1C(N)=O,11.7%
4,Nc1nnc(SCc2cccnc2)s1,5.25%
5,O=C1CC(c2ccc(Cl)cc2)CC(O)=C1C=NCc1ccc(Cl)c(Cl)c1 (stereo not shown),9.59%
6,CCCc1[nH][nH]c(=O)c1C(c1ccc(Br)cc1)C(C#N)C#N (stereo not shown),3.48%
7,O=C(Nc1ccc2nc(-c3ccc4nc[nH]c4c3)[nH]c2c1)c1cccs1,17.2%
8,CSc1ccc(-c2nc(CSCC(=O)NCCCN3CCCC3=O)c(C)o2)cc1,-0.17%
9,CC1=C(C)CC(C(=O)NC(C)CCc2ccccc2)C(C(=O)O)C1 (stereo not shown),10.2%
10,CCOc1ccc(NS(=O)(=O)c2ccc3ncsc3c2)cc1,12.1%
11,CCc1c(C)c2ccc(OCC(=O)OC(C)C)c(C)c2oc1=O,8.02%
12,Cc1ccc(N/N=C2\CC(=O)c3ccccc32)cc1Cl,17.1%
13,N#Cc1nc(Cc2cccc3ccccc23)oc1NCc1ccc2c(c1)OCO2,-6.62%
14,COc1cccc(C(=O)N2CCN(c3ccc(N4CCOCC4)nn3)CC2)c1,-0.266%
15,CNC(=O)c1cc(C(=O)c2ccc(C(F)(F)F)cc2F)c[nH]1,1.27%
16,COCCOC(=O)c1c(C)oc2ccc(OCc3cc(C(=O)OC)oc3C)cc12,7.41%
17,O=C(COC(=O)c1cc(Br)ccc1O)NNC(=O)c1ccc([N+](=O)[O-])cc1,-6.3%
18,COc1ccc(OC)c(NC2=NC3(CCCCC3)N=C(N)N2)c1,11.1%
19,Cc1ccc2oc(C(=O)N3CCN(Cc4nccn4C)CC3)c(C)c2c1,4.3%
20,Cc1cccc(NCc2ccc(Br)cc2)n1,10.1%
21,COC(=O)[C@@H]1C[C@@H]2CC[C@@H](O)C[C@@H]2N1Cc1ccc(N2CCN(C)CC2)cc1,7.78%
22,O=C(Nc1ccccc1-c1ccccc1)c1cnccn1,-1.32%
23,O=C(O)CCCCCNS(=O)(=O)c1cccc2nsnc12,1.14%

row,Compound,"hERG current change (%, negative = inhibition) at 1uM"
1,O=C(NCCCN1CCN(c2ccccc2F)CC1)Nc1ccc(F)cc1,-47.6%
2,COc1ccc(CC(=O)NCC2CCCN(Cc3cc(OC)cc(OC)c3)C2)cc1 (stereo not shown),7.2%
3,Cc1nn(-c2nc3ccccc3s2)c(C)c1Oc1ccccc1O,13.2%
4,COc1ccc(C2C3C(=O)N(N(C)c4ncc(C(F)(F)F)cc4Cl)C(=O)C3ON2C)cc1 (stereo not shown),11.8%
5,CCCCCCCCNC(=O)c1cccnc1SCC(=O)Nc1ccc(OC)cc1OC,8.68%
6,COc1ccc(OC)c(CC(=O)N(C)C2CCCN(Cc3ccccc3F)C2)c1 (stereo not shown),15.5%
7,Cn1cc(CCNCc2cn[nH]c2-c2ccc(-c3ccccc3)cc2)cn1,-8.02%
8,Cc1ccc(C(=O)O/N=C(\N)c2ccc(C(F)(F)F)cn2)cc1,11.7%
9,O=C1NC(c2ccccc2)=C(c2ccccc2)C1=O,11.4%
10,OCCOCCOc1ccccc1OCCOCCO,17.7%
11,COc1ccc(/C=C/C(=O)OCC(=O)c2c[nH]c3ccccc23)cc1,11.9%
12,COc1ccc(C2CC(C(F)(F)F)n3nc(C(=O)O)cc3N2)cc1 (stereo not shown),20%
13,CCOC(=O)CSCc1c(C#N)c2ccccc2n1C,5.91%
14,COc1ccc(OC)c(-c2csc(NC(=O)Cc3ccccc3OC)n2)c1,8.32%
15,O=C1Nc2ccc([N+](=O)[O-])cc2OC1CCN1CCN(Cc2ccccc2)CC1 (stereo not shown),1.52%
16,CC(C)COCC(O)CCC(=O)NNC(=S)Nc1ccccc1 (stereo not shown),3.87%
17,COc1ccc2c(c1)CCc1c(C(=O)NCc3cccnc3)noc1-2,8.03%
18,COc1ccc(C(C(=O)NC2CCCCC2)N(Cc2ccco2)C(=O)CNC(=O)c2ccco2)cc1 (stereo not shown),9.67%
19,COc1ccc(S(=O)(=O)N/N=C/c2ccc(OCCN3CCOCC3)c(OC)c2)cc1,9.9%
20,COc1ccccc1Nc1ccc2nonc2c1[N+](=O)[O-],10.6%
21,CCCOP(=O)(O)c1c([N+](=O)[O-])cc(C(F)(F)F)cc1[N+](=O)[O-].Cc1ccc(N)cc1,5.33%
22,O=C(N/N=C/c1ccc([N+](=O)[O-])s1)c1ccccc1,1.52%
23,CC1(C)CC(=O)C2=C(C1)N(c1ncn[nH]1)C(N)=C(C#N)C2c1ccccc1 (stereo not shown),2.77%

row,Compound,"hERG current change (%, negative = inhibition) at 1uM"
1,Cc1ccc(C(=O)N/C(=C\c2ccc(Cl)cc2)C(=O)NCC2CCCO2)cc1 (stereo not shown),-38.7%
2,N#Cc1cc2c(nc1SCc1ccccc1)CCCC2,11%
3,O=C1c2ccccc2NC(c2ccccc2Cl)N1N=C1CCCCCC1 (stereo not shown),-1.39%
4,NC(=O)c1ccc(NC(=O)COc2ccc([N+](=O)[O-])cc2Cl)cc1,7.77%
5,COc1ccc(Cl)cc1Nc1nc(C)nc2c1oc1ccccc12.Cl,23.3%
6,O=C(Nc1cccc([N+](=O)[O-])c1)N1CCCc2ccccc21,13.2%
7,Cc1cc(C)nc(SCC(=O)N/N=C/c2cccn2-c2ccc(O)cc2)n1,7.15%
8,CN(C)c1cccc(NC(=O)Cc2ccc(F)cc2)c1,12.6%
9,COc1ccc(-c2cc(C(F)(F)F)n3nc(C(=O)NCCCN4CCOCC4)cc3n2)cc1,10.7%
10,O=C(/C=C/c1ccco1)NC(=S)N1CCCCC1,13.5%
11,CCCC1c2ccc(C)n2CCN1C(=O)Nc1ccccc1Cl (stereo not shown),14.1%
12,O=C(Nc1cccc(Cl)c1)c1ccc(NCCCN2CCOCC2)c([N+](=O)[O-])c1,-8.94%
13,COc1cc(C(=O)NCCOc2ccccc2C)c(Br)c(OC)c1OC,-1.32%
14,CCC(C)NCCCCOc1cc(C)cc(C(C)C)c1 (stereo not shown),2.66%
15,Cc1cccc(NC(=O)CNc2cc(C)ccc2C)c1,-13.4%
16,Cc1ccc(NC2=CC(=O)CC(C)(C)C2)cc1C,11.1%
17,O=C(NCc1cccnc1)Nc1cccc([N+](=O)[O-])c1,8.57%
18,CC(c1ccon1)N(C)C(=O)CCc1nnc(Cc2ccc(-c3ccccc3)cc2)o1 (stereo not shown),0.227%
19,CCN1C(=O)[C@H]2[C@@H](c3ccc(C)cc3)N3C(=O)N(c4ccc(C(F)(F)F)cc4)C(=O)[C@@]3(CC(C)C)[C@H]2C1=O,14.4%
20,O=C(COC(=O)c1cnccn1)NCc1ccc(Cl)cc1,6.35%
21,C=CCOc1ccc(/C(O)=C2/C(=O)C(=O)N(CCCN3CCOCC3)C2c2ccccc2)cc1 (stereo not shown),15%
22,CC(C)(C)NC(=S)Nc1cccc(C(F)(F)F)c1,14.5%
23,O=C1NC[C@@H](Cc2cccc3ccccc23)N(CC2(c3ccccc3)CC2)C1=O,12.5%

row,Compound,"hERG current change (%, negative = inhibition) at 1uM"
1,COC(=O)c1ccc2ccn(CC(=O)NC(C)C)c2c1,8.71%
2,Cc1ccccc1N1C(=O)C2C3CCC(O3)C2C1=O (stereo not shown),14.2%
3,Cc1cc(C)n(CCNC(=O)C2CCC(=O)N(Cc3ccc(Cl)cc3)C2)n1 (stereo not shown),13.2%
4,CC(C)COc1ccc2[nH]c3c(c2c1)CCCC3=O,11.6%
5,CCc1cc2c(COC(=O)c3cccc(NS(C)(=O)=O)c3)cc(=O)oc2cc1O,13.2%
6,CCCC[C@H]1COCCS(=O)(=O)N1Cc1ccc(Br)cc1,-4.77%
7,COc1ccc(CNC2CCCC2)c(OC)c1OC,10.2%
8,CCc1ccccc1NC(=O)Cc1cn(C)c2ccccc12,6.07%
9,Cc1ccc(NC(=S)NCCCN2CCOCC2)cc1,14.9%
10,COc1ccc(NC(=S)NCc2cccnc2)cc1OC,0.51%
11,CC(=O)OCCN1CCN(C(=O)CN2C(=O)NC(c3ccccc3)(c3ccccc3)C2=O)CC1,11.1%
12,Br.COc1cccc(CNCC2CCCO2)c1 (stereo not shown),13.8%
13,Cc1cc(C)cc(NC(=O)C(=S)NCc2ccccc2)c1,14.6%
14,COc1cccc(C(=O)COC(=O)COc2c(C)cc(C)cc2C)c1,9.08%
15,CC(=O)N1CCN(S(=O)(=O)c2cccc(C(=O)Nc3nc4c(s3)CCCC4)c2)CC1,-6.41%
16,O=C(CSc1nnc2ccc(-c3ccncc3)nn12)c1cccs1,-0.233%
17,CCN(Cc1ccccc1)C(c1cc2cc(C)cc(C)c2[nH]c1=O)c1nnnn1CCOC (stereo not shown),8.47%
18,C/C(=N\OCC(=O)N/N=C/c1ccccc1O)c1cccs1,12.4%
19,CC1CCCCN1C(=O)COC(=O)/C=C/c1ccc2ccccc2n1 (stereo not shown),18.9%
20,O=C(NN=C1CCCCCCCCCCC1)c1ccncc1,2.8%
21,COc1ccc(/C=N/NC(=O)c2cnccn2)c(OC)c1OC,11.8%
22,CCOCCCNC(=O)C(c1ccc(Cl)cc1)N1CCC2(CC1)OCCO2 (stereo not shown),10.3%
